Reference: PMC4336329 (PLoS ONE, 2015)
In all, about 310,000 compounds went through this assay and about 14,000 (4.5%) showed an effect of 50% or more. The effect is printed as a negative number. Some of the results follow.

Biological target: human ether-à-go-go-related gene (hERG) potassium channel (human, UniProt Q12809)
Assay: primary screen, population patch clamp on CHO cells stably expressing hERG
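Also: peak tail current of the secondary pulse compared with the same well before compound.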

Sequence of human ether-à-go-go-related gene (hERG) potassium channel (Q12809 whole entry, looked up): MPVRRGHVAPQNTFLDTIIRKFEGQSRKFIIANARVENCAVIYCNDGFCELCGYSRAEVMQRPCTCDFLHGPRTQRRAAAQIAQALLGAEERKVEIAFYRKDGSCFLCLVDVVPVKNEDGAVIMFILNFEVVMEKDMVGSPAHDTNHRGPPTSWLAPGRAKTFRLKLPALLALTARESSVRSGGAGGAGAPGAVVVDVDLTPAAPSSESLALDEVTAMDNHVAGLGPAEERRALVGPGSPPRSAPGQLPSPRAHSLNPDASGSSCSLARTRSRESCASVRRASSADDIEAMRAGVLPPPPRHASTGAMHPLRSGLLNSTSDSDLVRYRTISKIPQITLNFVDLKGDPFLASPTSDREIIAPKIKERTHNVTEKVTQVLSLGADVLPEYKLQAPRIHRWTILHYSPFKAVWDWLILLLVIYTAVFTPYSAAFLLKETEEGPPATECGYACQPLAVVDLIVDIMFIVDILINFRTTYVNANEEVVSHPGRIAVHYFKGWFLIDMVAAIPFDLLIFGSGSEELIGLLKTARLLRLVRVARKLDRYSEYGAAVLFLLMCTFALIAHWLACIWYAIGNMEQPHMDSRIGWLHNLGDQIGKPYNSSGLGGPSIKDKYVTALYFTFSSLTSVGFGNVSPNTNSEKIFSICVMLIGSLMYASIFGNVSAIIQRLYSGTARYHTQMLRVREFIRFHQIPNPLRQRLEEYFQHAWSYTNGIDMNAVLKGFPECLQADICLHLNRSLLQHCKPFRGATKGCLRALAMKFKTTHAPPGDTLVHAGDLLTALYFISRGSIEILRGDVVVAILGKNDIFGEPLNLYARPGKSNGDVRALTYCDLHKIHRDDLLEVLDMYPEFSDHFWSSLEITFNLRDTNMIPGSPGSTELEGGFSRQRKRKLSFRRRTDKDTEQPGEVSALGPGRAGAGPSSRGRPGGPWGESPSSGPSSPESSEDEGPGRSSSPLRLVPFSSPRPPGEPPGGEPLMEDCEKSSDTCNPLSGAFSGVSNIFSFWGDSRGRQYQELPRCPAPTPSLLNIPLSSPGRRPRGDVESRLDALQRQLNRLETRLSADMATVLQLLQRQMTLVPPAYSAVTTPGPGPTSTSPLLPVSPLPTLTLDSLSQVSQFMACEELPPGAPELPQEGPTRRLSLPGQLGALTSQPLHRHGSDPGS

Compound | hERG current change (%, negative = inhibition) at 10uM [%]
Cc1nn(CC(=O)NCc2ccc(-n3cccn3)cc2)c(C)c1[N+](=O)[O-] | -2.8
CN1CC(=O)N=C1N | 8.56
CCS(=O)(=O)N1Cc2ccccc2CC1C(=O)NCC12CC3CC(CC(C3)C1)C2 (centres unmarked) | -34.7
CCN1C(=O)[C@H]2[C@@H](c3ccc(-c4ccccc4)cc3)N[C@@](C)(C(=O)OC)[C@H]2C1=O.O=C(O)C(F)(F)F | 10.6
Cc1cccc2c(CC(=O)Nc3ccccc3)noc12 | -0.38
COc1ccc(N2C(=O)C(OC(C)=O)C2c2ccc(C)cc2)cc1 (centres unmarked) | 17.3
CC(=NC1CC1)c1c(-c2ccccc2)[nH]n(-c2nc3ccccc3s2)c1=O | 9.63
O=C(CN1CCCCCC1)Nc1ccccc1F.O=C(O)C(=O)O | 9.38
COc1ccccc1C(=O)Nc1nc2ccccc2s1 | 24.5
COc1ccc(-c2noc(CN3CCCCC3c3nccn3C)n2)cc1 (centres unmarked) | -6.83
CC(C)N(C)S(=O)(=O)c1ccc(Cl)c(C(=O)O)c1 | 8.12
CCN1CCN(c2ccc(NC(=O)COc3ccccc3Cl)cc2)CC1 | -40.7
CC(=O)Nc1cccc(NC(=O)CSc2nc(=O)n(CCN3CCOCC3)c3c2CCC3)c1 | -2.96
CC(C)NCc1nnc(-c2ccc(Cl)cc2)o1 | 15.9
CCc1ccc2oc(-c3cc(N=Cc4cccc(OC)c4O)ccc3O)nc2c1 | 24.3
N#CC(c1ccccn1)c1ncc(C(F)(F)F)cc1Cl (centres unmarked) | 23.5
Cc1ncsc1CCSc1nc2ccccc2c(=O)n1C | -25.4
CCOC(=O)c1sc(C)c2c1NC(c1ccc(Cl)cc1)NC2=O (centres unmarked) | -5.32
CC(=O)c1cccc(NS(=O)(=O)c2cc3c(cc2C)N(C(C)=O)CCO3)c1 | 14.3
Cc1cc(/C=N/NC(=O)CC#N)c(C)n1-c1ccc([N+](=O)[O-])cc1 | 3.13
CC(CC(=O)Nc1ccncc1)c1ccccc1 (centres unmarked) | 5.85
C=C(C)n1c(=O)n(Cc2ccc(C)cc2)c2ccccc21 | 5.7

Compound | hERG current change (%, negative = inhibition) at 10uM [%]
COc1ccc(S(=O)(=O)N2CCCC(C(=O)N3CCCC3)C2)cc1OC (centres unmarked) | 4.14
Cn1c(=O)[nH]c2ncccc21 | 29.1
Cc1[nH]c2ccc(C(=O)NCCCN3CCOCC3)cc2c1C | 5.18
O=C(CN1CCCCCCC1)N/N=C/c1ccccc1F | -35.6
COc1ccc(NC(=O)COC(=O)CCCN2C(=O)c3ccccc3C2=O)cc1Cl | -47.2
CC(=O)c1ccc(OCc2cc(C(=O)N(C)Cc3nc4c(C)cccc4[nH]3)no2)cc1 | -10.7
O=C(/C=C/c1ccc(Cl)cc1)N1CCN(c2ccccc2[N+](=O)[O-])CC1 | -75.4
Cc1cc(NC(=O)Cn2nnc(-c3ccccc3NC(=O)c3ccccc3F)n2)no1 | 12.5
CC(=O)c1cc2c(cc1NC(=O)CSc1ccc(S(=O)(=O)N(C)C)cn1)OCO2 | -4.15
CC(=O)CSc1nsc(SCC(C)=O)c1C#N | 17.2
CC(=O)N1C(c2ccccc2)CC(=O)OC1c1ccc2c(c1)OCO2 (centres unmarked) | 15.9
CCCCOc1ccc(S(=O)(=O)N2CCCCC2)cc1 | -1.17
CCC(CC)c1nnc(NC(=O)c2cccnc2SC)s1 | 15.4
O=C(CNCCCO)Nc1cc(C(F)(F)F)cc(NC(=O)CNCCCO)c1Cl | -3.98
O=C(c1ccccc1NS(=O)(=O)c1ccc(Br)cc1)N1CCOCC1 | -0.073
Cc1ccc(-n2nnc3c(=O)n(Cc4cc(C)ccc4C)cnc32)cc1 | 3.64
N#C/C(=C(/O)c1ccc2c(c1)OCO2)c1nc2cc(C(F)(F)F)ccc2s1 | 33.5
CC(C)(C)NC(=O)C(c1ccccn1)N(C(=O)C1CSC(=O)C1)c1ccccc1F (centres unmarked) | 18
C=CCN1C(=O)/C(=c2\sc3nc(=O)c(Cc4ccccc4)nn3c2=O)c2ccccc21 | 13.5
Cc1ccc(C(=O)OCC(=O)NC(=O)c2ccccc2)o1 | -2.91
CCOC(=O)N1CCN(C(=O)/C(=C/c2ccc(OC)cc2)NC(=O)c2ccccc2)CC1 | -68.4
CN1CCc2c(sc3c2C(=O)NC(c2ccc(-c4ccc(Cl)cc4)o2)N3)C1 (centres unmarked) | -24.1
